Where “and” joins values, the source holds several entries; their conditions need not be identical. Equal entries are not always repeated. Some of the results follow. The main result of the screen is listed elsewhere. These columns were measured beside it and carry no call.
Legend:
Assay in all cases: Primary Screen for Target Class Profiling of Small Molecule Inhibitors of Methyltransferases
[1] = molecular target: Glycine N-methyltransferase (Homo sapiens) (UniProt Q14749); details: purified enzyme, MTase-Glo SAH luminescence; measured here: GNMT inhibition; at 40 µM; stronger effect = lower value
How it was run: (§1)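 Each enzyme was reacted with SAM and its substrate, with compounds tested once at 40 uM; SAH formed was read by MTase-Glo luminescence.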

[2] = molecular target: Guanidinoacetate N-methyltransferase (Homo sapiens) (UniProt Q14353); details: purified enzyme, MTase-Glo SAH luminescence; measured here: GAMT inhibition; at 40 µM; stronger effect = lower value
How it was run: as §1

[3] = molecular target: Histamine N-methyltransferase (Homo sapiens) (UniProt P50135); details: purified enzyme, MTase-Glo SAH luminescence; measured here: HNMT inhibition; at 40 µM; stronger effect = lower value
How it was run: as §1

[4] = molecular target: Nicotinamide N-methyltransferase (Homo sapiens) (UniProt P40261); details: purified enzyme, MTase-Glo SAH luminescence; measured here: NNMT inhibition; at 40 µM; stronger effect = lower value
How it was run: as §1

[5] = molecular target: Phenylethanolamine N-methyltransferase (Homo sapiens) (UniProt P11086); details: purified enzyme, MTase-Glo SAH luminescence; measured here: PNMT inhibition; at 40 µM; stronger effect = lower value
How it was run: as §1
% is scaled to controls: 0 for no effect and ±100 for the full control effect.

SMILES	activity change, negative = inhibition [1]	activity change, negative = inhibition [2]	activity change, negative = inhibition [3]	activity change, negative = inhibition [4]	activity change, negative = inhibition [5]
CC(C)n1c(=O)c2ccc(C(=O)NC3CCCC3)cc2n2c(=O)n(CC(=O)N(C)c3ccccc3)nc12	2.41%	0%	9.03%	-3.62%	1.66%
O=c1cc(-c2cccc(O)c2)oc2c(O)c(O)ccc12	–	-1.74%	–	-8.91%	5.44%
CCOC(=O)c1cc2n(n1)CC(C)(C(=O)NC1CCC(C)CC1)N(Cc1ccc(CC)cc1)C2=O (stereo not drawn)	-0.544%	3.55%	1.18%	-8.05%	-2.4%
COCc1nc(C2CC(N)C2)cc(N(C)Cc2noc3c2CCCC3)n1 (stereo not drawn)	-4.47%	-4.92%	-3.45%	-15%	-4.81%
COc1ccc2c(NC(=O)Nc3cccc(C(F)(F)F)n3)ccnc2c1	-10.2%	-1.92%	-28.5%	-25.7%	-11.5%
COc1ccc(N2C(=O)c3cc4sccc4n3CC2(C)C(=O)NC2CCCCCC2)cc1OC (stereo not drawn)	2.08%	0.182%	7.91%	-5.43%	2.03%
Cc1cccc(N2CCN(CCNC(=O)CCc3nnc4n(CC(C)C)c(=O)c5ccccc5n34)CC2)c1C	-1.31%	2.73%	11.8%	12.6%	4.76%
Cc1ccc(CNC(=O)Cn2nc3n(CC(C)C)c(=O)c4ccc(C(=O)NC(C)C)cc4n3c2=O)cc1	3.33%	0%	5.85%	1.21%	-0.109%
Cc1ccc(Cn2c(=O)c3ccccc3n3c(-c4ccccc4O)nnc23)cc1	-8.86%	-0.488%	-0.509%	-7.15%	-12.7%
CC(=O)OC(C)C[N+](C)(C)C (stereo not drawn)	4.06%	11.3%	10.6%	-4.27%	2.52%
C=C(C)[C@@H](C)[C@H]1O[C@]23C[C@]4(CO2)C(CCC2[C@@]5(C)CC[C@H](O[C@@H]6OC[C@H](O)[C@H](O[C@@H]7O[C@H](CO)[C@@H](O)[C@H](O)[C@H]7O)[C@H]6O[C@@H]6O[C@@H](CO)[C@H](O)[C@H]6O)C(C)(C)C5CC[C@]24C)C3[C@@](C)(O)[C@@H]1OC(C)=O (stereo partly drawn)	4.83%	10.1%	8.09%	-1.27%	6.59%
CN(C)c1ccc(/C=C2\C(=O)Nc3ccccc32)cc1	-17.5% and -15.7%	7.29% and 4.59%	2.23% and -0.232%	-106% and -85.6% and -76.7%	24.8% and -9.87% and -8.79%
O[C@@H]1CN(CC2CC2)CC[C@H]1N1CCN(c2ccccc2F)CC1	-6.14%	-10.9%	-4.22%	-14.5%	-10%
CC(C)Cc1nc(NC(=O)C[C@H]2NC(=O)c3ccccc3NC2=O)n[nH]1	-5.19%	-2.74%	-1.32%	-3.37%	-9.42%
Cc1ccc(N2C(=O)c3cc4sccc4n3CC2(C)C(=O)NC2CCCCCCC2)cc1C (stereo not drawn)	-1.61%	0%	6.72%	-3.24%	-0.205%
C=CCc1ccccc1OCC(O)CNC(C)C (stereo not drawn)	-11.1%	-0.832%	-3.74%	-12%	-0.137%
COC(=O)c1ncn2c1C(=O)N(Cc1ccccc1Cl)C(C)(C(=O)NC1CCCCC1)C2 (stereo not drawn)	4.96%	4.7%	4.68%	7.05%	3.5%
Cc1ccc(Cn2c(=O)c3ccccc3n3c(=O)n(Cc4cccc(Cl)c4)nc23)cc1	-1.59%	4.18%	1.48%	-2.97%	-1.29%
O=C(CCc1nnc2n(Cc3ccc(F)cc3)c(=O)c3ccccc3n12)N1CCN(c2ccccc2F)CC1	-1.43%	3.74%	6.19%	-13.9%	-2.95%

SMILES	activity change, negative = inhibition [1]	activity change, negative = inhibition [2]	activity change, negative = inhibition [3]	activity change, negative = inhibition [4]	activity change, negative = inhibition [5]
CCCN1C(=O)c2cc3ccccc3n2CC1(C)C(=O)NCCC(C)C (stereo not drawn)	5.39%	0%	4.93%	10.4%	4.84%
O=C(N[C@H]1C[C@@H]2OCC[C@H]12)c1cccc(-n2cnnc2)n1	-3.37%	-4.77%	-2.3%	-9.2%	-6.15%
C[C@H](N)C(=O)N[C@@H](Cc1ccc(O)cc1)C(=O)N1CCC[C@H]1C(=O)NCC(=O)N[C@@H](CCCCN)C(=O)N[C@@H](Cc1ccccc1)C(N)=O	6.68%	4.74%	10.6%	-4.23%	5.48%
Cc1ccc(C)c(Cn2nc3n(CCCOC(C)C)c(=O)c4ccccc4n3c2=O)c1	-0.985%	7.69%	7.69%	-7.55%	2.28%
COC(=O)c1cc2n(n1)CC(C)(C(=O)NC1CCC(C)CC1)N(CCc1ccc(Cl)cc1)C2=O (stereo not drawn)	3.86%	2.05%	5.6%	3.76%	7.17%
CCOC(=O)c1ccc(N2C(=O)CSc3c(c4ccccc4n3C)C2C(=O)NCc2ccc(F)cc2)cc1 (stereo not drawn)	0.394%	0%	7.24%	6.17%	2.49%
CC(C)Oc1ccc(CNC(=O)c2ncn3c2C(=O)N(C2CC2)C(C)(C(=O)NCc2ccccc2)C3)cc1 (stereo not drawn)	-1.15%	-4.88%	4.04%	-1.58%	-2.9%
Cc1cc(C)cc(NC(=O)CSc2nnc3n(CCC(C)C)c(=O)c4ccccc4n23)c1	2.85%	0%	7.71%	-4%	2.44%
Cn1c(=O)n(C)c2cc(S(=O)(=O)NCCO)ccc21	-2.99%	2%	-0.01%	3.5%	-5.78%
Cc1ccc(CNC2CN(C(=O)OC(C)(C)C)C2)nc1	-1.21%	-3.9%	0.753%	-7.48%	10.4%
Cc1nc(N=Nc2ccc(S(=O)(=O)O)cc2S(=O)(=O)O)c(COP(=O)(O)O)c(C=O)c1O	5.86%	12.8%	10.3%	-3.17%	1.74%
CCCN1C(=O)c2c(C(=O)NCCc3cccs3)ncn2CC1(C)C(=O)NCc1ccc(F)cc1 (stereo not drawn)	0.913%	0.063%	0.68%	2.79%	7.85%
Cc1cc(C)cc(NC(=O)Cc2ccc(OC(C)(C)C(=O)O)cc2)c1	-3.88%	-22%	5%	-31.1%	-3.83%
Cn1ccnc1C(=O)N1CCCCCNC(=O)[C@H]2C[C@H](C(=O)N3CCc4ccccc4C3)C[C@H]21	-2.22%	-1.04%	-2.42%	-0.521%	-2.89%
CCCCC[C@H](CC(=O)NO)C(=O)N[C@H](C(=O)N1CCC[C@H]1CO)C(C)C	8.97%	10.2%	12.9%	-5.46%	3.91%
Cc1ccc(NS(=O)(=O)c2cc3c(cc2Cl)n(C)c(=O)n3C)cc1F	14.6%	0%	11.3%	7.13%	7.03%
O=C(c1c2c(nc3ccccc13)CCCC2)N1CCCC(c2nc(C3CCOCC3)no2)C1 (stereo not drawn)	-7.6%	-7.2%	-4.61%	-8.18%	-4.54%
CCC(NC(=O)CC(NC(=O)C(CO)NC(=O)C(CC)NC(=O)c1ccc[nH]1)c1ccccc1)C(=O)O (stereo not drawn)	4.42%	8.8%	8.17%	-4.67%	6.89%
Cc1ccc2c(c1)c1c(n2CCc2ccc(C)nc2)CCN(C)C1	2.6%	-11.6%	-54.7%	-49.1%	-7.27%

SMILES	activity change, negative = inhibition [1]	activity change, negative = inhibition [2]	activity change, negative = inhibition [3]	activity change, negative = inhibition [4]	activity change, negative = inhibition [5]
CCc1nnc([C@@H]2CC(F)(F)CN2C(=O)c2occc2C)o1	-4.08%	-10.4%	-3.35%	-13.3%	-8.6%
CCOC(=O)c1cc2n(n1)CC(C)(C(=O)NC1CCCC1)N(c1ccc(OC)cc1OC)C2=O (stereo not drawn)	5.77%	0.801%	2.67%	3.46%	5.13%
Nc1ncnc2c1ncn2C1CCCC1	-3.19%	6.99%	1.77%	-9.76%	-8.84%
CN(Cc1nc(-c2ccccc2)no1)C(=O)c1cccc(C2CCNC2)c1 (stereo not drawn)	-1.65%	-0.539%	-9.63%	0.034%	3.53%
COc1cccc(CN2C[C@@H](CO)[C@H](NC(=O)C3CCC3)C2)c1	-5.13%	-4.2%	-2.39%	-4.99%	-3.1%
CCOCCCNC(=O)c1cc2n(n1)CC(C)(C(=O)NC1CCCCCC1)N(C)C2=O (stereo not drawn)	6.82%	0.215%	2.32%	7.49%	1.76%
CCN(C1CCOCC1)C1CN(C(=O)c2ccnn2C)C1	-0.773%	2.8%	3.02%	-2.73%	-0.796%
CC(=O)Nc1ccc(CN2CC[C@@H](c3ccc4c(c3)OCO4)[C@H](O)C2)cc1	-2.63%	-1.36%	-2.44%	-3.24%	-4.71%
CC(C)NC(=O)c1ccc2c(=O)n(Cc3ccccc3)c3nn(Cc4cccc(Cl)c4)c(=O)n3c2c1	4.45%	0.911%	9.86%	4.83%	7.85%
CC(C)Cn1c(=O)c2ccccc2n2c(SCC(=O)Nc3ccccc3F)nnc12	-2.56%	4%	4.85%	-8.29%	4.04%
CN1C(=O)c2cc(C(=O)N3CCC(C(N)=O)CC3)nn2CC1(C)C(=O)NC1CCCCCC1 (stereo not drawn)	-3.29%	-3.17%	-6.21%	-2.44%	-4.46%
O=C1NC(c2cccc([N+](=O)[O-])c2)=CCN1c1ccccc1O	-10.3% and -4.43%	-5.94% and 13.2%	6.27% and 10.4%	-12.1% and -4.17%	0.027% and 5.6%
CC(=O)OCC(=O)[C@@]1(O)CC[C@H]2[C@@H]3CCC4=CC(=O)C=C[C@]4(C)[C@H]3[C@@H](O)C[C@@]21C	1.68%	5.2%	7.78%	-6.23%	4.43%
CCCn1c(=O)c2ccc(C(=O)NC(C)C)cc2n2c(=O)n(CC(=O)NCc3ccccc3)nc12	0.471%	-0.081%	2.07%	-2.58%	-6.45%
CC1CCCC(C)N1CCNC(=O)CCCc1nnc2n3nc(-c4ccccc4)nc3c3ccccc3n12 (stereo not drawn)	-2.16%	1.75%	-23.8%	11%	2.3%
COc1ccc(C2C(C(=O)O)C(C(=O)O)C2c2ccc(OC)cc2O[C@@H]2O[C@H](CO)[C@@H](O)[C@H](O)[C@H]2O)c(O[C@@H]2O[C@H](CO)[C@@H](O)[C@H](O)[C@H]2O)c1 (stereo partly drawn)	-6.56%	-5.38%	4.07%	-18.3%	-13%
C=C(CO)C(=O)O[C@H]1C[C@@]23O[C@@H]2CC/C(=C/[C@H]2OC(=O)C(=C)[C@H]12)CO[C@H]3O	-2.58%	-14.8%	5.99%	-26.2%	-0.425%
C=C(C)C(=O)OC1CC(CO)CCC/C(CO)=C/C2OC(=O)C(=C)C21 (stereo not drawn)	2.67%	2.82%	4.35%	-6.73%	6.58%
O=C(Cn1c(=O)oc2ccccc21)N1CC2CC(C1)[C@H]1CCCC(=O)N1C2 (stereo partly drawn)	-3.93%	-8.68%	-3.11%	-14.7%	6.31%
